Patent EP4431525A1 (Anaveon AG, dated 2024)

T1: His-tagged recombinant CD25 (UniProt P01589 22-213, limits assumed)
T1 construct: also called IL-2R alpha chain
T1 sequence (looked up): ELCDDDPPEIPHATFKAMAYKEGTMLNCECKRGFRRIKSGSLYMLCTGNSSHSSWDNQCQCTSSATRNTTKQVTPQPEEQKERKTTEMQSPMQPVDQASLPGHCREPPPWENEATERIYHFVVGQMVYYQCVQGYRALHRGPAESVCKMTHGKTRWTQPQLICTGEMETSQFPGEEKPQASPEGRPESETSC

T2: IL-2R on murine splenocytes (NK cells, CD8 T cells, Treg cells) (mouse, UniProt P01590 22-268; P16297 27-539; P34902 23-369)
T2 sequence (looked up) 1: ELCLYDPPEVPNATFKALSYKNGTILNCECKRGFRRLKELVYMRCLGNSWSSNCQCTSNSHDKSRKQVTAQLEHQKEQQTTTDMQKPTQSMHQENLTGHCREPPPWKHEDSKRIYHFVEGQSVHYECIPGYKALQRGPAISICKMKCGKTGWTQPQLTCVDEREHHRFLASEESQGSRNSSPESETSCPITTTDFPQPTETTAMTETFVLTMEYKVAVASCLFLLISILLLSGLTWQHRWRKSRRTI
T2 sequence (looked up) 2: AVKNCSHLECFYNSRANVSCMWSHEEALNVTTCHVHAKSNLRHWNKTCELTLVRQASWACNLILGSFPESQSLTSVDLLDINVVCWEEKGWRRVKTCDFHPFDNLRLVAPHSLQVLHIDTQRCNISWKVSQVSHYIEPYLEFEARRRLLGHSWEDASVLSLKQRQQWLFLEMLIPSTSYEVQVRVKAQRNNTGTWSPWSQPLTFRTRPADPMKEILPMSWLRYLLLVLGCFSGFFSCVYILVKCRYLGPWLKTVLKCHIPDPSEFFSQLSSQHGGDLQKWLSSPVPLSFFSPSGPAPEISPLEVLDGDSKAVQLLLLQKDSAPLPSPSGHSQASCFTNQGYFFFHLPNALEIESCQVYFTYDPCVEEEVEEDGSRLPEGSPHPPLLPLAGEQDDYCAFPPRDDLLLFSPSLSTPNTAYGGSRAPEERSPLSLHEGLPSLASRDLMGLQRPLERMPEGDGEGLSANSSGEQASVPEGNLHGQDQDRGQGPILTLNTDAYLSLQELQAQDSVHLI
T2 sequence (looked up) 3: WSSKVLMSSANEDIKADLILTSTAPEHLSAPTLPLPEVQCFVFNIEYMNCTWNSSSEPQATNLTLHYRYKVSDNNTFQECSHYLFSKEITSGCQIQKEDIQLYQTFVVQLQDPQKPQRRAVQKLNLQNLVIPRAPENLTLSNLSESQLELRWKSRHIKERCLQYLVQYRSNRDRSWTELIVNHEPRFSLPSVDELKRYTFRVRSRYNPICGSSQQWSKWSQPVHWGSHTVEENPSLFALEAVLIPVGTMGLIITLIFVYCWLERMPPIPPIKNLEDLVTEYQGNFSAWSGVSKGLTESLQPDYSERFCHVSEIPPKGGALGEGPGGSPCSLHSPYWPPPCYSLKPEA


Key:
[1] = molecular target: T1, His-tagged recombinant CD25; assay: SPR, His-CD25 captured
[2] = molecular target: T2, IL-2R on murine splenocytes (NK cells, …); assay: cell-based or functional assay

Binder	Kd [1]	EC50 CD8 cells (pSTAT5, mouse splenocytes) [2]	EC50 NK cells (pSTAT5, mouse splenocytes) [2]	EC50 Treg cells (pSTAT5, mouse splenocytes) [2]
FUE433 (other, Antibody C, IL-2CP in CDR-L1, linkers 3/4 AA) heavy: EVQLVQSGAEVKKPGESLKISCKGSGYSFTNFYIHWVRQAPGQRLEWMGSIYPNYGDTAYNQKFKDRFVFSLDTSVSTAYLQISSLKAEDTAVYYCARGYSYAMDYWGQGTTVTVSSASTKGPSVFPLAPSSKSTSGGTAALGCLVKDYFPEPVTVSWNSGALTSGVHTFPAVLQSSGLYSLSSVVTVPSSSLGTQTYICNVNHKPSNTKVDKRV[letters of human IgG1 Fc with changes left out] light: DIQMTQSPSSVSASVGDRVTITCSASQGISGGGGNFHLRPRDLISNINVIVLELKGSETTFMCEYADETATIVEFLNRWITFSQSIISTLTPTSSSTKKTQLQLEHLLLDLQMILNGINNYKNPKLTRMLTFKFYMPKKATELKHLQCLEEELKPLEEVLNLAQSKGGGGDLNWYQQKPGKAPKLLIYHTSSLHSGVPSRFSGSGSGTDFTLTISSLQPEDFATYYCQYYSKDLLTFGGGTKLEIKRTVAAPSVFIFPPSDEQLKSGTASVVCLLNNFYPREAKVQWKVDNALQSGNSQESVTEQDSKDSTYSLSSTLTLSKADYEKHKVYACEVTHQGLSSPVTKSFNRGECRTVAAPSVFIFPPSDEQLKSGTASVVCLLNNFYPREAKVQWKVDNALQSGNSQESVTEQDSKDSTYSLSSTLTLSKADYEKHKVYACEVTHQGLSSPVTKSFNRGEC	0.16 nM			
DXM339 (other, Antibody C, IL-2CP in CDR-L1, linkers 2/3 AA) heavy: EVQLVQSGAEVKKPGESLKISCKGSGYSFTNFYIHWVRQAPGQRLEWMGSIYPNYGDTAYNQKFKDRFVFSLDTSVSTAYLQISSLKAEDTAVYYCARGYSYAMDYWGQGTTVTVSSASTKGPSVFPLAPSSKSTSGGTAALGCLVKDYFPEPVTVSWNSGALTSGVHTFPAVLQSSGLYSLSSVVTVPSSSLGTQTYICNVNHKPSNTKVDKRV[letters of human IgG1 Fc with changes left out] light: DIQMTQSPSSVSASVGDRVTITCSASQGISGGGNFHLRPRDLISNINVIVLELKGSETTFMCEYADETATIVEFLNRWITFSQSIISTLTPTSSSTKKTQLQLEHLLLDLQMILNGINNYKNPKLTRMLTFKFYMPKKATELKHLQCLEEELKPLEEVLNLAQSKGGGDLNWYQQKPGKAPKLLIYHTSSLHSGVPSRFSGSGSGTDFTLTISSLQPEDFATYYCQYYSKDLLTFGGGTKLEIKRTVAAPSVFIFPPSDEQLKSGTASVVCLLNNFYPREAKVQWKVDNALQSGNSQESVTEQDSKDSTYSLSSTLTLSKADYEKHKVYACEVTHQGLSSPVTKSFNRGECRTVAAPSVFIFPPSDEQLKSGTASVVCLLNNFYPREAKVQWKVDNALQSGNSQESVTEQDSKDSTYSLSSTLTLSKADYEKHKVYACEVTHQGLSSPVTKSFNRGEC	0.18 nM			
LIZ707 (other) heavy: EVQLVQSGAEVKKPGESLKISCKGSGYAFTNYLIEWVRQMPGKGLEWMGVINPGGGFYMPKKATELKHLQCLEEELKPLEEVLNLAQSKNFHLRPRDLISNINVIVLELKGSETTFMCEYADETATIVEFLNRWITFCQSIISTLTPTSSSTKKTQLQLEHLLLDLQMILNGINNYKNPKLTRMLTFKGGGSGGTNYNEKFKGQVTISADKSISTAYLQWSSLKASDTAMYYCARWRGEGYYAYFDVWGQGTTVTVSSASTKGPSVFPLAPSSKSTSGGTAALGCLVKDYFPEPVTVSWNSGALTSGVHTFPAVLQSSGLYSLSSVVTVPSSSLGTQTYICNVNHKPSNTKVDKRV[letters of human IgG1 Fc with changes left out] light: AIRLTQSPSSFSASTGDRVTITCKASQSVDYQGDSYMNWYQQKPGKAPKLLIYAASNLESGVPSRFSGSGSGTDFTLTISSLQSEDFATYYCQQSNEDPYTFGGGTKVEIKRTVAAPSVFIFPPSDEQLKSGTASVVCLLNNFYPREAKVQWKVDNALQSGNSQESVTEQDSKDSTYSLSSTLTLSKADYEKHKVYACEVTHQGLSSPVTKSFNRGEC		12.5 nM	5.3 nM	3.8 nM

The remaining lines, values ahead:

Kd [1]	EC50 CD8 cells (pSTAT5, mouse splenocytes) [2]	EC50 NK cells (pSTAT5, mouse splenocytes) [2]	EC50 Treg cells (pSTAT5, mouse splenocytes) [2]	Binder
0.12 nM				LPT269 (other, Antibody C, IL-2CP in CDR-L1, linkers 0/1 AA) heavy: EVQLVQSGAEVKKPGESLKISCKGSGYSFTNFYIHWVRQAPGQRLEWMGSIYPNYGDTAYNQKFKDRFVFSLDTSVSTAYLQISSLKAEDTAVYYCARGYSYAMDYWGQGTTVTVSSASTKGPSVFPLAPSSKSTSGGTAALGCLVKDYFPEPVTVSWNSGALTSGVHTFPAVLQSSGLYSLSSVVTVPSSSLGTQTYICNVNHKPSNTKVDKRV[letters of human IgG1 Fc with changes left out] light: DIQMTQSPSSVSASVGDRVTITCSASQGISGNFHLRPRDLISNINVIVLELKGSETTFMCEYADETATIVEFLNRWITFSQSIISTLTPTSSSTKKTQLQLEHLLLDLQMILNGINNYKNPKLTRMLTFKFYMPKKATELKHLQCLEEELKPLEEVLNLAQSKGDLNWYQQKPGKAPKLLIYHTSSLHSGVPSRFSGSGSGTDFTLTISSLQPEDFATYYCQYYSKDLLTFGGGTKLEIKRTVAAPSVFIFPPSDEQLKSGTASVVCLLNNFYPREAKVQWKVDNALQSGNSQESVTEQDSKDSTYSLSSTLTLSKADYEKHKVYACEVTHQGLSSPVTKSFNRGECRTVAAPSVFIFPPSDEQLKSGTASVVCLLNNFYPREAKVQWKVDNALQSGNSQESVTEQDSKDSTYSLSSTLTLSKADYEKHKVYACEVTHQGLSSPVTKSFNRGEC
0.15 nM				LQM346 (other, Antibody C, IL-2CP in CDR-L1, linkers 6/7 AA) heavy: EVQLVQSGAEVKKPGESLKISCKGSGYSFTNFYIHWVRQAPGQRLEWMGSIYPNYGDTAYNQKFKDRFVFSLDTSVSTAYLQISSLKAEDTAVYYCARGYSYAMDYWGQGTTVTVSSASTKGPSVFPLAPSSKSTSGGTAALGCLVKDYFPEPVTVSWNSGALTSGVHTFPAVLQSSGLYSLSSVVTVPSSSLGTQTYICNVNHKPSNTKVDKRV[letters of human IgG1 Fc with changes left out] light: DIQMTQSPSSVSASVGDRVTITCSASQGISGGGGGSGNFHLRPRDLISNINVIVLELKGSETTFMCEYADETATIVEFLNRWITFSQSIISTLTPTSSSTKKTQLQLEHLLLDLQMILNGINNYKNPKLTRMLTFKFYMPKKATELKHLQCLEEELKPLEEVLNLAQSKGGGGSGGDLNWYQQKPGKAPKLLIYHTSSLHSGVPSRFSGSGSGTDFTLTISSLQPEDFATYYCQYYSKDLLTFGGGTKLEIKRTVAAPSVFIFPPSDEQLKSGTASVVCLLNNFYPREAKVQWKVDNALQSGNSQESVTEQDSKDSTYSLSSTLTLSKADYEKHKVYACEVTHQGLSSPVTKSFNRGECRTVAAPSVFIFPPSDEQLKSGTASVVCLLNNFYPREAKVQWKVDNALQSGNSQESVTEQDSKDSTYSLSSTLTLSKADYEKHKVYACEVTHQGLSSPVTKSFNRGEC
	32.2 nM	34.3 nM	2.6 nM	VBE401 (other) heavy: EVQLVQSGAEVKKPGESLKISCKGSGYAFTNYLIEWVRQMPGKGLEWMGVINPGSGGTNYNEKFKGQVTISADKSISTAYLQWSSLKASDTAMYYCARWRGEGGGFHLRPRDLISNINVIVLELKGSETTFMCEYADETATIVEFLNRWITFSQSIISTLTPTSSSTKKTQLQLEHLLLDLQMILNGINNYKNPKLTRMLTFKFYMPKKATELKHLQCLEEELKPLEEVLNLAQSKGGGGYYAYFDVWGQGTTVTVSSASTKGPSVFPLAPSSKSTSGGTAALGCLVKDYFPEPVTVSWNSGALTSGVHTFPAVLQSSGLYSLSSVVTVPSSSLGTQTYICNVNHKPSNTKVDKRV[letters of human IgG1 Fc with changes left out] light: AIRLTQSPSSFSASTGDRVTITCKASQSVDYQGDSYMNWYQQKPGKAPKLLIYAASNLESGVPSRFSGSGSGTDFTLTISSLQSEDFATYYCQQSNEDPYTFGGGTKVEIKRTVAAPSVFIFPPSDEQLKSGTASVVCLLNNFYPREAKVQWKVDNALQSGNSQESVTEQDSKDSTYSLSSTLTLSKADYEKHKVYACEVTHQGLSSPVTKSFNRGEC
